{
  "source": "PubChem BioAssay AID1345083",
  "about": "(National Center for Advancing Translational Sciences (NCATS), 2018)",
  "note": "Out of some 94,000 compounds screened, about 6,200 (6.6%) were called active. The shares of active, inactive and inconclusive entries below differ from those in the screen. Calls come from the whole dose curve; as a rule, active = well fitted inhibition curve with a large enough effect; inconclusive = small, poorly fitted or top-dose-only effect; inactive = flat fitted curve, though single readings scatter. Where the call is inconclusive, the potency comes from a doubtful curve fit. Potency is the fitted concentration of half-maximal effect; tags give direction and shape of the fitted curve.",
  "data": [
    {"assay": "Cytotoxic Profiling in HEK 293 Cell Line of Diverse Libraries Using Quantitative High-Throughput Screening; note: nearly all actives have a fitted effect of over 60% in size", "conditions": "HEK 293 viability, ATP luminescence (CellTiter-Glo), 48-72 h; series mostly up to 115 µM", "method_in_brief": "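HEK 293 seeded at 250 cells/well receive compound via pintool. After 48 or 72 hr at 37 degree Celsius, 5% CO2 and 95% humidity, CellTiter-Glo is dispensed and luminescence read following 10 min at room temperature.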", "values": [
      {"smiles": "COc1cccc(CNC(=O)c2c(C)noc2-c2cccs2)c1", "Potency": "inconclusive: 50.1 µM [inhibitor, partial curve, poor fit]"},
      {"smiles": "O=C(CCC[C@H]1NC[C@@H]2C[C@H]1CN(Cc1ccccc1)C2)Nc1ccc(N2CCOCC2)cc1", "Potency": "inactive"},
      {"smiles": "Cc1cnn(CCC(=O)N[C@@H]2CN(Cc3ccccn3)C[C@H]2CN(C)C)c1", "Potency": "inactive"},
      {"smiles": "COc1ccc(CC(=O)N2CCCC(C(=O)N3CCC(c4nc5ccncc5[nH]4)C3)C2)cc1", "note": "(configuration not stated)", "Potency": "inactive"},
      {"smiles": "COCC(=O)N[C@H]1CCN2C(=O)N(c3ccc(OC(F)(F)F)cc3)C(=O)[C@@H]2C1", "Potency": "inactive"},
      {"smiles": "O=C(NC1CCCN(c2cc(-c3ccccc3)[nH]n2)C1)c1cccc2[nH]ccc12", "note": "(configuration not stated)", "Potency": "inconclusive: 35.5 µM [inhibitor, partial curve, poor fit]"},
      {"smiles": "O=C(Nc1cc(-c2cccnc2)nn1-c1ccccc1)c1ccc(C(F)(F)F)cc1", "Potency": "inconclusive: 50.1 µM [inhibitor, partial curve, poor fit]"},
      {"smiles": "O=C(Nc1cccc(Cl)c1)c1nc2sccn2c1-c1ccc(F)cc1", "Potency": "inconclusive: 70.8 µM [inhibitor, partial curve]"},
      {"smiles": "CCn1cc(S(=O)(=O)N2C[C@@H](Oc3cccnc3)C[C@H]2C(=O)NC)cn1", "Potency": "inactive"},
      {"smiles": "COc1ccc(-c2cc(N3CCC(NC(=O)c4cccs4)CC3)n[nH]2)cc1", "Potency": "inconclusive: 39.8 µM [inhibitor, partial curve, poor fit]"},
      {"smiles": "COc1cccc(-c2cc(-c3c(C)noc3C)c3cncn3c2)c1", "Potency": "inconclusive: 35.5 µM [inhibitor, full curve]"},
      {"smiles": "C[C@H]1[C@@H]2[C@H]3OC(=O)[C@@H](C)[C@@H]3CC[C@@]2(C)CC[C@@H]1NC(=O)Cc1ccccc1", "Potency": "active: 100 µM"},
      {"smiles": "COc1ccc(-c2cnc3[nH]cc(CC(=O)Nc4ccc(F)c(Cl)c4)c3c2)cc1", "Potency": "inconclusive: 70.8 µM [inhibitor, full curve, poor fit]"},
      {"smiles": "CC(C)(C)c1ccc(C(=O)N2CCC(c3nc(C4CCOC4)no3)CC2)cc1", "note": "(configuration not stated)", "Potency": "inconclusive: 39.8 µM [inhibitor, partial curve, poor fit]"},
      {"smiles": "COc1cccc(N2CCN(C(=O)c3cc4n(n3)CC(c3ccc(Cl)cc3)OC4)CC2)c1", "note": "(configuration not stated)", "Potency": "inconclusive: 44.7 µM [inhibitor, partial curve, poor fit]"},
      {"smiles": "COC[C@@H]1CN(Cc2cnn(C)c2)C[C@H]1c1ccncc1", "Potency": "inactive"},
      {"smiles": "NC(=O)c1cccnc1OC1CCN(CCc2ccccc2)CC1", "Potency": "inactive"},
      {"smiles": "COc1ccc(N2CCOC3CCN(Cc4ccc(C(C)C)cc4)CC3C2=O)cc1", "note": "(configuration not stated)", "Potency": "inconclusive: 100 µM [inhibitor, partial curve, poor fit]"},
      {"smiles": "COCC(=O)N1CCCC(C(=O)N2CCCC2c2nc3ccncc3[nH]2)C1", "note": "(configuration not stated)", "Potency": "inactive"},
      {"smiles": "CN1C(=O)C2(CCN(C(=O)CCC3CCCCC3)CC2)c2ccccc21", "Potency": "active: 44.7 µM"},
      {"smiles": "O=C(Cc1ccc(F)cc1)N1CCC(c2n[nH]c(=O)n2Cc2ccc(F)cc2)CC1", "Potency": "inactive"},
      {"smiles": "COc1ccc(Nc2nc(-c3c(C)noc3C)cc3cc(CN(C)C)oc23)cn1", "Potency": "active: 79.4 µM"},
      {"smiles": "Cn1nccc1CN1CCCC2(CN[S+](=O)([O-])c3ccccc3N2)C1", "note": "(configuration not stated)", "Potency": "inactive"},
      {"smiles": "O=C(NCCn1cccc1-c1nc(-c2ccccc2)no1)c1ccccc1F", "Potency": "inconclusive: 89.1 µM [inhibitor, single point]"},
      {"smiles": "CCc1nc2c(c(-c3ccc(O)cc3)n1)CN(Cc1ccccc1)CCC2", "Potency": "inconclusive: 70.8 µM [inhibitor, partial curve, poor fit]"},
      {"smiles": "O=C(NC1CCCN(Cc2ccc(-c3cncnc3)cc2)C1)c1ccncc1", "note": "(configuration not stated)", "Potency": "inconclusive: 56.2 µM [inhibitor, partial curve, poor fit]"},
      {"smiles": "COc1ccc(NC(=O)N2CCc3c(C(=O)N(C)Cc4ccco4)cccc32)cc1", "Potency": "inconclusive: 50.1 µM [inhibitor, partial curve, poor fit]"},
      {"smiles": "Cc1ccc(C(=O)N2CCC(CCC(=O)NC3CCCCCC3)CC2)cc1", "Potency": "inconclusive: 50.1 µM [inhibitor, partial curve, poor fit]"},
      {"smiles": "O=C(NCc1cccs1)c1ccc2nnc(-c3cc[nH]c3)n2c1", "Potency": "inactive"},
      {"smiles": "F[C@@H]1CN(Cc2ccnc3ccccc23)C[C@@H]1OCc1nc2ncccc2[nH]1", "Potency": "inconclusive: 100 µM [inhibitor, partial curve, poor fit]"},
      {"smiles": "O=C(NCc1ccc(Cl)cc1)c1ccc2nnc(-c3ccc(Cl)cc3Cl)n2c1", "Potency": "inconclusive: 79.4 µM [inhibitor, partial curve, poor fit]"},
      {"smiles": "Cc1noc2c(NCc3cccnc3)cc(-c3ccc(Cl)cc3)nc12", "Potency": "active: 100 µM"},
      {"smiles": "Cc1cccc(-c2ncc(CN(CCN3CCOCC3)Cc3ccco3)cn2)c1", "Potency": "inconclusive: 35.5 µM [inhibitor, full curve]"},
      {"smiles": "Cc1ncsc1CCNC(=O)c1ccc2nc(-c3ccccc3)cn2c1", "Potency": "inconclusive: 39.8 µM [inhibitor, full curve, poor fit]"},
      {"smiles": "CN1C(=O)CCC2(CNC(=O)CCc3ccccc3)CCC=C12", "note": "(configuration not stated)", "Potency": "inactive"},
      {"smiles": "c1ccc(N2CCCC2)c(-c2nc(C3CCOC3)no2)c1", "note": "(configuration not stated)", "Potency": "inactive"},
      {"smiles": "O=c1n(CC2CC2)c2cccnc2n1[C@H]1CCCN(S(=O)(=O)c2cccnc2)C1", "Potency": "inconclusive: 3.55 µM [inhibitor, full curve, poor fit]"},
      {"smiles": "CC(C)(C)C(=O)NC1CCN(Cc2ccc(-c3ccsc3)cc2)C1", "note": "(configuration not stated)", "Potency": "inconclusive: 50.1 µM [inhibitor, partial curve, poor fit]"},
      {"smiles": "CC(C)c1ccc(C(=O)NC[C@@H]2CC[C@H]3C[C@@H]2C3(C)C)cc1", "Potency": "inconclusive: 112 µM [inhibitor, partial curve, poor fit]"},
      {"smiles": "O=C(c1ccc(Cl)cc1)N1CC2(CCN(Cc3ccccn3)CC2)Cc2ccccc21", "Potency": "inconclusive: 56.2 µM [inhibitor, partial curve, poor fit]"},
      {"smiles": "COCCN1C(=O)[C@H]2CN(Cc3ccccc3C)C[C@H]2C1=O", "Potency": "inconclusive: 89.1 µM [inhibitor, single point]"},
      {"smiles": "c1ccc(-c2ncn(CC3CCCO3)c2-c2cccc3cnccc23)cc1", "note": "(configuration not stated)", "Potency": "inconclusive: 22.4 µM [inhibitor, full curve]"}
    ]}
  ]
}
